Paper PMC12136788
The list shows a part of the results.

B1: 48573448_48573568_92_3pUTR_ENSG00000141646_ENST00000592186|human|control|control (ssRNA)
RNA: GGGAGUUCUACAGUCCGACGAUCUUUUUCUCCUUCAGCUUCUUUACCAAACUUUCAAUUGCUCUUUUUGCAAAUGUUUCACUCUCUCCACCUUGUCUAUGGCACAUCAAACUAUGCACAAUGCUCAGACAGGCAUCAUUACUUCAACAGAGGAUUGAGCAUCA
B2: chr16:49915050:49915051:+_ENSMUSG00000055447_ENSMUST00000084838|mus_hu|FALSE|FALSE (ssRNA)
RNA: GGGAGUUCUACAGUCCGACGAUCAGUAUAUAUAAUAUUACAGGGUAAUAUUUACAAAGUUAUGUUUUUUUUUAAAUAAAAAAGUACCUUGGCAAAGAUUGCAGAUAUUCAAAGCUUUAAACAGUGAUAAAUUGAUUUAAUACACAACAGAGGAUUGAGCAUCA
B3: chr19:3544227:3544228:-_ENSMUSG00000024908_ENSMUST00000113997|mus_mus|FALSE|FALSE (ssRNA)
RNA: GGGAGUUCUACAGUCCGACGAUCAAAGAAAUGUUUUCUUCUCUGUGGCUCCUUGCCCAUUACAGGUUAUCCUGGUGACAGCUAUCUUCCAAAUUACAUUAGCAGAUUAGCAGAAGUAUGAAAGGAUAUUGUAUGAAACAGAAGCAACAGAGGAUUGAGCAUCA
B4: chr19:8913615:8913616:-_ENSMUSG00000071658_ENSMUST00000096259|mus_hu|mus_mus_mus_hu_False|48_68 (ssRNA)
RNA: GGGAGUUCUACAGUCCGACGAUCAGGGUACCAAAACCUUCUGCCUGAAAUGGGUGCCCCACCCAGUCAGGACUUGGAGCUGAAAGUAUCCGUAGCAGAAGCAGUGACUAUACGAAAGGAGGCCCCUGGGGAGGGCCAGGCCAGCAACAGAGGAUUGAGCAUCA
B5: chr11:102151369:102151370:-_ENSMUSG00000059995_ENSMUST00000137387|mus_mus|motif|central (ssRNA)
RNA: GGGAGUUCUACAGUCCGACGAUCUAUGCUUGGUAGUGGGGCCGGCCCGAGAACCUUCUUUCCCCCUCUAGCGAGAAGGCGGUGGAGGGCCAAGGACAGAGGGGCCCAGGCUCCAAGGAUUUAUUCUAACUCCUGCCAAAAUUACAACAGAGGAUUGAGCAUCA
B6: chr1:163122491:163122492:-_ENSG00000143248_ENST00000313961|hu_hu|FALSE|FALSE (ssRNA)
RNA: GGGAGUUCUACAGUCCGACGAUCGGCAAUCCAGAACUCAAGGUUUUCCUCACUGAAUUCAGACUUCAGGAAACUUUUGAAACUGGCAAGUCCAUAGUUGUUCUGCAGGAGUUUGUCCAGGGAAUCACGCCACUGCAGGGCCUCCAACAGAGGAUUGAGCAUCA
B7: 108216868_108216988_1542_3pUTR_ENSMUSG00000068740_ENSMUST00000090558|mouse|control|control (ssRNA)
RNA: GGGAGUUCUACAGUCCGACGAUCAGGACGGUGGCCUGGAAAGGGGUGCUGACAAAGAUGGGGGCGUUAUCGUUGAUGUCUAGGACUUGCACUGUUACUAGGCCAGAGACAUUGGAGAGUGGAGGACGGCCACCGUCCUGAGCCCAACAGAGGAUUGAGCAUCA
B8: chr11:87793471:87793472:-_ENSMUSG00000020483_ENSMUST00000020775|mus_mus|mus_mus_mus_hu_False|68_88 (ssRNA)
RNA: GGGAGUUCUACAGUCCGACGAUCUGGACUUGAAAAUAAAAGAAUAAGCUAGAUUUCCCACCCCCCCACAGUGUCAACCCUACACGAGAGUUUUGAAGGCGACUCAUGAAAAUCAGCAGCUCAAACGGCAAUGACCACCCCACCCAACAGAGGAUUGAGCAUCA
B9: chr1:84754351:84754352:-_ENSMUSG00000026219_ENSMUST00000027421|mus_hu|FALSE|FALSE (ssRNA)
RNA: GGGAGUUCUACAGUCCGACGAUCAGCAUGAUUUUUCAGAACAUCCUUCAGAAGUUCAGCAUCCGCAAAAUAAAUUAUCCUAAGAAUUGCUCUAAGGCACUUAUGUCUGACCGCAGGUCCUGCUGAGGAACUAUACACUUCAUACAACAGAGGAUUGAGCAUCA
B10: chr4:57860909:57860910:+_ENSG00000047315_ENST00000314595|hu_hu|motif|central (ssRNA)
RNA: GGGAGUUCUACAGUCCGACGAUCAUCUGUCAAGCCAUUCAAAAGGCAGUAAGUUGACCGCAACAUAAUUGGAAUUUUUCCGGUAAAAGUUUUCUGAUGCUGAGUCUGAAGUUGUUCUUCACCUUCUUUAAUGACUGUUUUUGUCAACAGAGGAUUGAGCAUCA
B11: chr1:21268426:21268427:-_ENSG00000075151_ENST00000400422|hu_mus|motif|central (ssRNA)
RNA: GGGAGUUCUACAGUCCGACGAUCGUUCUCCUUGGCUGAUAAUUUUUCUCCAACUCCAUUCAUUUCAUUAAUUAGGAUAGUACGGGAAAUUAGCUGACUAUCAUGAGGCGCUACGCUACAGGGUUUCUUGCAUAUAUCACUGUUCAACAGAGGAUUGAGCAUCA
B12: chr1:2330915:2330916:+_ENSG00000157916_ENST00000443438|hu_hu|motif|central (ssRNA)
RNA: GGGAGUUCUACAGUCCGACGAUCAGGACCGUCAUCUGAGUCUUCCAUUAAGGAAGGAUCCACUUUGGGAGAAAGAAAAGCGGUGAAAAGAUUUAGAUGGUAGAUCCCCAAGGCAUAGGUCACAAUGUACCAACCCUGCAGCAGCAACAGAGGAUUGAGCAUCA
B13: chr3:25639645:25639646:-_ENSG00000077097_ENST00000264331|hu_hu|FALSE|FALSE (ssRNA)
RNA: GGGAGUUCUACAGUCCGACGAUCAUCAGACAGUACGUGACAUUUCAAUGAGUAAAAAAGAGCAUAAAACUGUAUGUGUAAGAACAAAAUGUUAAAAGGCCUACCACAAUAAUAAAAAACCGUCAAUUACAUCAUCACAUUAAACAACAGAGGAUUGAGCAUCA
B14: chr9:95013113:95013114:-_ENSG00000196305_ENST00000443024|hu_hu|hu_hu_hu_mus_False|48_98 (ssRNA)
RNA: GGGAGUUCUACAGUCCGACGAUCCUCAGUCAGAAAGGGUGUGUAGGGGGCCAUCAGUCUGCACAGAGAAAGCAGGACACUGAACAGGGUUUCUAGGGCCAUGACACAGUCUUCCACCCCACUCUCACCCUUUAACCUCCUCCUCAACAGAGGAUUGAGCAUCA
B15: chr1:80268134:80268135:-_ENSMUSG00000004364_ENSMUST00000163119|mus_hu|FALSE|FALSE (ssRNA)
RNA: GGGAGUUCUACAGUCCGACGAUCGACUCUGUGUAGUUUGGAUGUGAAUUGAUCAUUAACUGUAAAUAUAUGACCAUUUUCUAUUUCCUUUGAUUUGGGUUCUUUUGUAAGAACCCGCUGUGUUGGUUUACCACAGGCGAGGGACAACAGAGGAUUGAGCAUCA
B16: chr9:40579289:40579290:+_ENSMUSG00000032024_ENSMUST00000034522|mus_mus|FALSE|FALSE (ssRNA)
RNA: GGGAGUUCUACAGUCCGACGAUCAUUCUUCACCUUGCAGGUGUAUCUGCCUUCAUCACUGGGUUUCAGAGGCUCAAUCUGCAGGGAAGCAUCUCCUGCCAGGAAGUUGGAAGCGAAGGCCACUCGGCCCUUCUGCUCCUCGGUCAACAGAGGAUUGAGCAUCA
B17: chr7:140404665:140404666:+_ENSG00000090266_ENST00000247866|hu_hu|hu_hu_hu_mus_False|18_18 (ssRNA)
RNA: GGGAGUUCUACAGUCCGACGAUCUGCUCCUACUCGUCCAGAGAGUUUACAGUGUCAGUCCUCGUCAUCAGGAGGGAUUCCCAGUUCUUCAUCUGUCCACUGUGAAGGAUCUGGAUACGGAAAGUGACCCAGCACAGCAUCCGACAACAGAGGAUUGAGCAUCA
B18: chr8:121455507:121455508:-_ENSG00000172172_ENST00000306185|hu_mus|FALSE|FALSE (ssRNA)
RNA: GGGAGUUCUACAGUCCGACGAUCUGCAGUUUGUUGGAUGCUAUAACCGCAAGUUUGCCAGGGGGCUGCAUUUUGCCAUCUAAGAGAUACCACAUUCGAGCAAAAGUGGCCCAUUGCUGGGGCGCCCUAGAGAAGCUGGACAUGCAACAGAGGAUUGAGCAUCA
B19: chr1:220276048:220276049:+_ENSG00000067704_ENST00000302637|hu_hu|hu_hu_hu_mus_True|38_78 (ssRNA)
RNA: GGGAGUUCUACAGUCCGACGAUCGCAAAUUGCCUGGUUGGCGGGAAUUGUCCAAGGUUGUGUGGUCCAAACUAAAACGCUAACAGGGGAUGAGGCAUCUAUAAGAGACUCCAACUUCGGAGGAGGUCUCAGGAGGGGGAAUCUCAACAGAGGAUUGAGCAUCA
B20: chr4:38126685:38126686:+_ENSG00000065882_ENST00000510573|hu_hu|motif|central (ssRNA)
RNA: GGGAGUUCUACAGUCCGACGAUCGUCUUUUCCAUCUGUACCAAGCCAAGGUUGGGUAGCGUGCUUUUUAUAAAGUCAACGGUGGUUUCUAGGUUUUCAUGCUGCAGAAUCAAGGGCUUAUGGCUUCCCAACAGACUUAAAGCCCAACAGAGGAUUGAGCAUCA
B21: chr4:62047152:62047153:+_ENSMUSG00000066150_ENSMUST00000084526|mus_mus|FALSE|FALSE (ssRNA)
RNA: GGGAGUUCUACAGUCCGACGAUCUCCAGCCAUUUCUCCAGGUGUAUUGAUUACCAAACCGGAAAACAAUAGAUUCACAUUCUUAAAGUCAAAGUAGAAGGUCAUAGGCAUCAUCAUCAUGCUGUCCCCUCCACCGUGGGAGUGCAACAGAGGAUUGAGCAUCA
B22: chr21:38528988:38528989:+_ENSG00000182670_ENST00000355666|hu_hu|FALSE|FALSE (ssRNA)
RNA: GGGAGUUCUACAGUCCGACGAUCAAAAUCAAGCAGUUUAAGAGAUGCUCCAUAACGAGAAAAGAAAGUUCCUGUGGCAUCUAAGCCAAAGCUAUUAAGUUUUUGGAUCCAGGCGGCUAAUUUGGGCUCCACUUCUUUAAGCUCCAACAGAGGAUUGAGCAUCA

Target: T1, UNK ZnF1-3 (human, UniProt Q9C0B0 31-174)
T1 sequence: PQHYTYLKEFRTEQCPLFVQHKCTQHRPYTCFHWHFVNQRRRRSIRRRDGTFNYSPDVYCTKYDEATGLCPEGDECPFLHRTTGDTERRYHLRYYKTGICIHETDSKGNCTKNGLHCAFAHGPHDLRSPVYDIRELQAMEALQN
Experiment: nsRBNS (natural sequence RNA bind-n-seq); RBNS binding buffer (assumed for nsRBNS): 25 mM Tris pH 7.5, 150 mM KCl, 3 mM MgCl2, 0.01% Triton X-100, 500 ug/ml BSA, 20 U/ml SUPERase-In, 4 C; UNK is unkempt and MSI1 is Musashi-1; names of the RNAs are library labels; protein concentration not given here; high values mean tight binding

Binder	binding signal [enrichment R]
B1	0.64
B2	2.79
B3	1.17
B4	1.15
B5	0.662
B6	1
B7	1.05
B8	2.33
B9	1.67
B10	0.943
B11	0.99
B12	1.67
B13	1.45
B14	0.806
B15	0.47
B16	0.565
B17	1.43
B18	1.13
B19	2.06
B20	1.01
B21	1.43
B22	1.01
